Source: PubChem BioAssay AID1645882 (National Center for Advancing Translational Sciences (NCATS), 2021)
Out of some 16,000 compounds screened, about 120 (0.75%) were called active. Another 4% or so got no clear call; they are omitted. The call rests on the fitted dose curve; in most records, active means well fitted inhibition curve with a large enough effect; inconclusive means small, poorly fitted or top-dose-only effect; inactive means no such curve, though single readings can be large or run the other way. The list shows a part of the results.

Target: Rap guanine nucleotide exchange factor 3 (Homo sapiens) (UniProt O95398)
Experiment: Validation qHTS for antagonist of cAMP-regulated guanine nucleotide exchange factor 3 (EPAC1); further: nearly all actives have a fitted effect of over 75% in size
Settings: EPAC1 Rap1B-BODIPY-GDP exchange, fluorescence; series mostly up to 150 µM; activity change, negative = inhibition: at the top concentration
Text: Assay Provider (PI): Xiaodong Cheng Ph.D.
The University of Texas Medical Branch, […], TX
In multi-cellular eukaryotic organisms, the effects of cAMP are transduced by two ubiquitously-expressed intracellular cAMP receptors, the classic protein kinase A/cAMP-dependent protein kinase (PKA/cAPK) and the more recently discovered exchange protein directly activated by cAMP/cAMP-regulated guanine nucleotide exchange factor (EPAC/cAMP-GEF). Both PKA and EPAC are ubiquitously expressed in all tissues, and an increase in intracellular cAMP levels will lead to the activation of both PKA and EPAC. Therefore, careful dissections of the individual role and relative contribution of EPAC and PKA within the overall cAMP signaling in various model systems are critical for further elucidating the mechanism of cAMP signaling. To date no EPAC-specific antagonists and agonist, as well as isoform-specific agonists have been reported, and developing EPAC-specific pharmacological probes to determine the physiological functions that EPAC play in the overall cAMP-mediated signaling remains a major challenge within the research field. Furthermore, identified regulators of EPAC may lead to new mechanism-based therapeutic strategies specifically targeting the EPAC / cAMP-signaling components as EPAC has been implicated to play important roles in major human pathological conditions such as diabetes, heart disease, and cancer.
This qHTS will be used to screen the Molecular Libraries Small Molecule Repository (MLSMR) as a concentration-titration series using the NCGC unique quantitative screening (qHTS) platform to find activators for EPAC1. In addition, this assay will also be used as a counterscreen for the EPAC2 qHTS. This fluorescent based assay is developed and validated for EPAC1 that measures exchange using EPAC effector Rap1 complex with BODIPY-GDP, a GDP analog with a tethered fluorophores. Activators are identified by monitoring the change in fluorescence signal as the exchanged free BODIPY-GDP has a reduced fluorescence compared to Rap1-bound BODIPY-GDP. Increase in signal (activation) is the desired outcome for the EPAC1 agonist while no activity in this assay is desired for the EPAC2 agonist counterscreen.
[1] de Rooij, J., Zwartkruis, F. J., Verheijen, M. H., Cool, R. H., Nijman, S. M., Wittinghofer, A., and Bos, J.L. (1998) Nature 396, 474-477.
Briefly, three uL of reagents (100 nM EPAC1, 250 nM RAP1B-BODIPY-GDP, 50 uM GDP) were dispensed into a 1536-well Greiner black solid-bottom medium binding assay plate. Controls and test compounds (23 nL) were transferred to the plate via a Kalypsys pin tool equipped with a 1536-pin array. The plates were centrifuged at 1,000 rpm for 15 seconds followed by 5 minute incubation at room temperature. The assay plates were read at 5 minute intervals for 30 minutes in the ViewLux plate reader using 480nm excitation and 540nm emission filters. The results were normalized to the […] positive control ATA and DMSO.

Sequence of UniProt O95398 (O95398 whole entry, looked up): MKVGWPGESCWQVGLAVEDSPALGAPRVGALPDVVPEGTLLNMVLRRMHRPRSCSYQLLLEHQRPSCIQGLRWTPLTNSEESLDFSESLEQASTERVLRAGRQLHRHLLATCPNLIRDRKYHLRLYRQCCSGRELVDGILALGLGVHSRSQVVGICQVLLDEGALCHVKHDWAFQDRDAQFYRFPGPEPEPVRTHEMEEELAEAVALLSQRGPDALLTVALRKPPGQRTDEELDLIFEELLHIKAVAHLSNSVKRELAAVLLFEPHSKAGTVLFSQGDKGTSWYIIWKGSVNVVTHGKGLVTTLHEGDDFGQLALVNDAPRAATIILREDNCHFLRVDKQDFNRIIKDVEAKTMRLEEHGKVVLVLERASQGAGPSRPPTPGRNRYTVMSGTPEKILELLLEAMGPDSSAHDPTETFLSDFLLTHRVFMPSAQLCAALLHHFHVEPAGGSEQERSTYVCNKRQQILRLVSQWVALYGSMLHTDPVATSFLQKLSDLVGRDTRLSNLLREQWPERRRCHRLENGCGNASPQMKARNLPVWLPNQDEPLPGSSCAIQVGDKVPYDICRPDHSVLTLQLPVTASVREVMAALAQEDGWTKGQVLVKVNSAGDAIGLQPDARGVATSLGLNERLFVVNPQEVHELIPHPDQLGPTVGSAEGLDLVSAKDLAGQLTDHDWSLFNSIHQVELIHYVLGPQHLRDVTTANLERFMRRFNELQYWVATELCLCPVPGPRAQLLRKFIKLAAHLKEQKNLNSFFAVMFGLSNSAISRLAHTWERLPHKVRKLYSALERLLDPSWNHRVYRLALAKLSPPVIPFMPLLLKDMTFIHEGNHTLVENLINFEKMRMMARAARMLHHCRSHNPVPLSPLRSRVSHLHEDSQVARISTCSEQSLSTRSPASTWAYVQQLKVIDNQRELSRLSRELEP

Row | Compound | activity change, negative = inhibition
1 | Cc1c(C(=O)NCC2Cc3cccc(-c4cncnc4)c3O2)c(-c2ccccc2)nn1-c1ccccc1 (stereo unspecified) | inactive: 9.21%
2 | O=C([C@@H]1CC=C[C@@H]2CCN(C3CCCCC3)C(=O)[C@@H]21)N1CCN(c2ccccc2)CC1 | inactive: -2.93%
3 | CC(=O)NC(C(=O)O)C(C)(C)SN=O (stereo unspecified) | inactive: 9.85%
4 | Nc1ccc(S(=O)(=O)Nc2ccc(Cl)nn2)cc1 | inactive
5 | COc1ccc(Oc2ncc3nc(C)c(=O)n(C[C@H]4CCCO4)c3n2)cc1 | inactive: 14.9%
6 | CCCN1CCC(=O)N(CCC#N)CC1 | inactive: -0.262%
7 | O=C1c2c(O)cc(O)cc2OC(c2ccc(O)c(O)c2)C1O (stereo unspecified) | inactive
8 | CCc1ccc2c(c1)N(CC(C)CN(C)C)c1ccccc1S2 (stereo unspecified) | inactive: 21%
9 | CC1CN(CCC(=O)NCc2ccc3ncccc3c2)Cc2cc(Cl)ccc2O1 (stereo unspecified) | inactive: 4.31%
10 | CC(C)NC[C@@H](O)COc1cccc2[nH]ccc12 | inactive: -0.282%
11 | O=C(NC1CCCCC1)[C@@H]1CC=C[C@@H]2CCN(C3CCCCC3)C(=O)[C@@H]21 | inactive: 12.9%
12 | O=C1CCN(Cc2ccc([N+](=O)[O-])cc2)CCN1CCO | inactive: 8.33%
13 | COc1ccc(CN2CCC(=O)N([C@H](CO)c3ccccc3)CC2)cc1OC | inactive: -7.47%
14 | CN(C)CCCOc1nn(Cc2ccccc2)c2ccccc12 | inactive: 12.6% [at 75.8 µM]
15 | O=C1c2ccccc2C(=O)c2c(NCCc3ccc(O)cc3)ccc(NCCc3ccc(O)cc3)c21 | inactive: -1.78% [at 75.8 µM]
16 | COc1cc2c(cc1OC)C1C(=O)c3ccc4c(c3OC1CO2)C=CC(C)(C)O4 (stereo unspecified) | inactive: -27.3%
17 | CCCS(=O)(=O)NCc1c(C)ncc2c1CCN(C(=O)c1cccc(Cl)c1F)C2 | inactive: 2.42%
18 | CN(C)C1CCC(CC2CCc3ccccc32)CC1 (stereo unspecified) | inactive: 12.4%
19 | N#Cc1ccc(CN2CC[C@@]3(CCCN(C(=O)c4cnccn4)C3)C2)cc1 | inactive: 18.2%
20 | N#CCCn1c(=O)c(-c2cc(F)cc(F)c2)nc2cnc(N3CCOCC3)nc21 | inactive: 29%
21 | C=CC(COCc1ccccc1)N([C@@H](Cc1ccccc1)C(=O)OC)S(=O)(=O)c1ccccc1Br (stereo partly specified) | inactive: 12.5%
22 | O=c1c(-c2ccc(F)cc2)nc2cnc(N3CCNCC3)nc2n1Cc1cccs1 | inactive: -6.65%
23 | COc1ccc(-c2nc3cnc(N(C)C)nc3n(C[C@H]3CCCO3)c2=O)cc1 | inactive: 20%
24 | N#CCCn1c(=O)c(-c2cc(F)cc(F)c2)nc2cnc(OCc3ccccc3)nc21 | inactive: 1.01%
25 | COc1cc(O)c(C(C)=O)c(OC)c1 | inactive: 13.1%
26 | Nc1ccn(C[C@@H](CO)OCP(=O)(O)O)c(=O)n1 | inactive: -27.9%

Row | Compound | activity change, negative = inhibition
27 | O=C(c1cnccn1)N1CCC2(CCCN(c3ccccc3)C2)CC1 | inactive: 10.3%
28 | CC[C@@H]1CN2CCc3cc(OC)c(OC)cc3[C@@H]2C[C@@H]1C[C@H]1NCCc2cc(OC)c(OC)cc21 | inactive: 3.45%
29 | Cc1ccccc1N=C1Nc2ccccc2N[C@]12C[C@H]1CCCC(=O)N3CC[C@@H](C2)[C@@H]13 | inactive: 4.45%
30 | CN1CCCC(CN2c3ccccc3Sc3ccccc32)C1 (stereo unspecified) | inactive: 5.2%
31 | COc1ccccc1CN1Cc2cccc3c2[C@@H](CC1=O)[C@H](O)[C@H](O)C3 | inactive: 8.51%
32 | CO[C@]12C[C@@H](COC(=O)c3cncc(Br)c3)CN(C)[C@@H]1Cc1cn(C)c3cccc2c13 | inactive
33 | Cc1oc(-c2cccc(NC(=O)c3ccccn3)c2)nc1CNC(=O)C#Cc1ccccc1 | inactive: 0.0681%
34 | O=C(NCC1CCC2(CCN(Cc3cc4ccccc4o3)CC2)O1)c1ccccc1 (stereo unspecified) | inactive: 12.5%
35 | COc1cccc(Nc2ncc3nc(C)c(=O)n(C[C@H]4CCCO4)c3n2)c1 | inactive: 6.81%
36 | COCC1CCCN(Cc2ccc3c(c2)CN(C(=O)c2ccc(-n4cccn4)cc2)CCO3)C1 (stereo unspecified) | inactive: 31%
37 | Cc1ncc(C[n+]2csc(CCOP(=O)(O)O)c2C)c(N)n1 | inactive: 1.84%
38 | CNCC[C@H](Oc1ccc(C(F)(F)F)cc1)c1ccccc1 | inactive
39 | N#CCCn1c(=O)c(-c2cc(F)cc(F)c2)nc2cnc(Oc3cccc(Cl)c3)nc21 | inactive: 10.4%
40 | COCCn1c(=O)c(CCc2ccccc2)nc2cnc(Oc3cccc(Cl)c3)nc21 | inactive: -14.4%
41 | COc1cc(C(=O)N2CCOCC2)cc(OC)c1OC | inactive: 13.7%
42 | C=C1C(=O)O[C@H]2[C@H]1CC/C(C)=C\CC[C@@]1(C)O[C@@H]21 | inactive: 13%
43 | COc1ncc2nc(-c3ccc(F)cc3)c(=O)n(-c3ccccc3)c2n1 | inactive: 0.41%
44 | CC(=O)OCC(=O)[C@@]1(O)CC[C@H]2[C@@H]3CCC4=CC(=O)CC[C@]4(C)[C@H]3C(=O)C[C@@]21C | inactive
45 | Cc1cccc(CN2Cc3cccc4c3[C@H](C=CC4)CC2=O)c1 | inactive: -5.04%
46 | CC(C)(C)[C@H]1CCC(=O)N(CCSc2ccc(Br)cc2)CC1 | inactive: -12.9%
47 | CC(=O)OCC(=O)[C@@]1(O)CC[C@H]2[C@@H]3CCC4=CC(=O)C=C[C@]4(C)[C@@]3(F)[C@@H](O)C[C@@]21C | inactive: 1.69% [at 75.8 µM]
48 | CCCCCCCCCCCCCc1ccco1 | inactive: 18.9%
49 | Cc1cnc(-n2ncc(C(=O)N[C@H]3CCCCNC3=O)c2C2CC2)nc1-c1cccs1 | inactive: 14.5%
50 | Cn1cc(C(=O)OCC2CCN(CCNS(C)(=O)=O)CC2)c2ccccc21 | inactive
51 | COc1ccc(OC)c(CN2CCOc3ccc(CN4CCC(O)(c5cccnc5)CC4)cc3C2)c1 | inactive: 7.4%
